{"source": "the supplement of paper PMC8728848", "binders": {"B1": {"name": "Cohesin-hDECTIN-1 (Homo sapiens) (protein)", "chain": "LDITSHHHHHHDDLDAVRIKVDTVNAKPGDTVRIPVRFSGIPSKGIANCDFVYSYDPNVLEIIEIEPGDIIVDPNPDKSFDTAVYPDRKIIVFLFAEDSGTGAYAITKDGVFATIVAKVKEGAPNGLSVIKFVEVGGFANNDLVEQKTQFFDGGVNVGDTTEPATPTTPVTTPTTTDDLDAASSSPCPPNWIIYEKSCYLFSMSLNSWDGSKRQCWQLGSNLLKIDSSNELGFIVKQVSSQPDNSFWIGLSRPQTEVPWLWEDGSTFSSNLFQIRTTATQENPSPNCVWIHVSVIYDQLCSVPSYSICEKKFM"}}, "assay_in_all_cases": "glycan array binding signal (z-score within array); higher = stronger binding", "conditions_in_all_cases": "glycan notation: IUPAC condensed, linker removed", "key": {"Fuc(a1-2)Gal": {"target": "Fuc(a1-2)Gal", "how_it_was_run": "(§1)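 Columns mapping to the same glycan were averaged after glycan names were converted to IUPAC-condensed notation. The data come from 3228 arrays in the Consortium for Functional Glycomics database, limited to those with an available protein sequence. Binding is reported as a within-array Z-score averaged across arrays of one protein sequence and across linkers.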"}, "Fuc(a1-2)Gal(b1-3)GalNAc": {"target": "Fuc(a1-2)Gal(b1-3)GalNAc", "how_it_was_run": "as §1"}, "[1]": {"target": "Fuc(a1-2)Gal(b1-3)GalNAc(a1-3)[Fuc(a1-2)]Gal(b1-4)Glc", "how_it_was_run": "as §1"}, "[2]": {"target": "Fuc(a1-2)Gal(b1-3)GalNAc(a1-3)[Fuc(a1-2)]Gal(b1-4)GlcNAc", "how_it_was_run": "as §1"}, "[3]": {"target": "Fuc(a1-2)Gal(b1-3)GalNAc(b1-3)Gal", "how_it_was_run": "as §1"}, "[4]": {"target": "Fuc(a1-2)Gal(b1-3)GalNAc(b1-3)Gal(a1-4)Gal(b1-4)Glc", "how_it_was_run": "as §1"}, "[5]": {"target": "Fuc(a1-2)Gal(b1-3)GalNAc(b1-4)[Neu5Ac(a2-3)]Gal(b1-4)Glc", "how_it_was_run": "as §1"}, "Fuc(a1-2)Gal(b1-3)GlcNAc": {"target": "Fuc(a1-2)Gal(b1-3)GlcNAc", "how_it_was_run": "as §1"}, "[6]": {"target": "Fuc(a1-2)Gal(b1-3)GlcNAc(b1-2)Man(a1-3)[Fuc(a1-2)Gal(b1-3)GlcNAc(b1-2)Man(a1-6)]Man(b1-4)GlcNAc(b1-4)GlcNAc", "how_it_was_run": "as §1"}, "[7]": {"target": "Fuc(a1-2)Gal(b1-3)GlcNAc(b1-2)Man(a1-3)[Fuc(a1-2)Gal(b1-3)GlcNAc(b1-2)Man(a1-6)]Man(b1-4)GlcNAc(b1-4)[Fuc(a1-6)]GlcNAc", "how_it_was_run": "as §1"}, "[8]": {"target": "Fuc(a1-2)Gal(b1-3)GlcNAc(b1-3)Gal(b1-4)Glc", "how_it_was_run": "as §1"}, "[9]": {"target": "Fuc(a1-2)Gal(b1-3)GlcNAc(b1-3)GalNAc", "how_it_was_run": "as §1"}, "[10]": {"target": "Fuc(a1-2)Gal(b1-3)GlcNAc(b1-3)[Fuc(a1-2)Gal(b1-3)GlcNAc(b1-6)]GalNAc", "how_it_was_run": "as §1"}, "[11]": {"target": "Fuc(a1-2)Gal(b1-3)GlcNAc(b1-3)[Gal(b1-4)GlcNAc(b1-6)]Gal(b1-4)Glc", "how_it_was_run": "as §1"}, "[12]": {"target": "Fuc(a1-2)Gal(b1-3)GlcNAc(b1-3)[Neu5Ac(a2-6)Gal(b1-4)GlcNAc(b1-6)]Gal(b1-4)Glc", "how_it_was_run": "as §1"}, "[13]": {"target": "Fuc(a1-2)Gal(b1-3)GlcNAc6S", "how_it_was_run": "as §1"}, "[14]": {"target": "Fuc(a1-2)Gal(b1-3)[Fuc(a1-4)]GlcNAc", "how_it_was_run": "as §1"}, "[15]": {"target": "Fuc(a1-2)Gal(b1-3)[Fuc(a1-4)]GlcNAc(b1-2)Man(a1-3)[Fuc(a1-2)Gal(b1-3)[Fuc(a1-4)]GlcNAc(b1-2)Man(a1-3)]Man(b1-4)GlcNAc(b1-4)GlcNAc", "how_it_was_run": "as §1"}, "[16]": {"target": "Fuc(a1-2)Gal(b1-3)[Fuc(a1-4)]GlcNAc(b1-2)Man(a1-3)[Fuc(a1-2)Gal(b1-3)[Fuc(a1-4)]GlcNAc(b1-2)Man(a1-6)]Man(b1-4)GlcNAc(b1-4)[Fuc(a1-6)]GlcNAc(b1-4)[Fuc(a1-6)]GlcNAc", "how_it_was_run": "as §1"}, "[17]": {"target": "Fuc(a1-2)Gal(b1-3)[Fuc(a1-4)]GlcNAc(b1-3)[Fuc(a1-3)[Gal(b1-4)]GlcNAc(b1-6)]Gal(b1-4)Glc", "how_it_was_run": "as §1"}, "[18]": {"target": "Fuc(a1-2)Gal(b1-3)[Fuc(a1-4)]GlcNAc(b1-3)[Gal(b1-4)GlcNAc(b1-6)]Gal(b1-4)Glc", "how_it_was_run": "as §1"}, "Fuc(a1-2)Gal(b1-4)Glc": {"target": "Fuc(a1-2)Gal(b1-4)Glc", "how_it_was_run": "as §1"}, "Fuc(a1-2)Gal(b1-4)Glc6S": {"target": "Fuc(a1-2)Gal(b1-4)Glc6S", "how_it_was_run": "as §1"}, "Fuc(a1-2)Gal(b1-4)GlcNAc": {"target": "Fuc(a1-2)Gal(b1-4)GlcNAc", "how_it_was_run": "as §1"}, "[19]": {"target": "Fuc(a1-2)Gal(b1-4)GlcNAc(b1-2)Man", "how_it_was_run": "as §1"}, "[20]": {"target": "Fuc(a1-2)Gal(b1-4)GlcNAc(b1-2)Man(a1-3)[Fuc(a1-2)Gal(b1-4)GlcNAc(b1-2)Man(a1-6)]Man(b1-4)GlcNAc(b1-4)GlcNAc", "how_it_was_run": "as §1"}, "[21]": {"target": "Fuc(a1-2)Gal(b1-4)GlcNAc(b1-2)Man(a1-3)[Fuc(a1-2)Gal(b1-4)GlcNAc(b1-2)Man(a1-6)]Man(b1-4)GlcNAc(b1-4)[Fuc(a1-6)]GlcNAc", "how_it_was_run": "as §1"}, "[22]": {"target": "Fuc(a1-2)Gal(b1-4)GlcNAc(b1-2)[Fuc(a1-2)Gal(b1-4)GlcNAc(b1-4)]Man(a1-3)[Fuc(a1-2)Gal(b1-4)GlcNAc(b1-2)Man(a1-6)]Man(b1-4)GlcNAc(b1-4)GlcNAc", "how_it_was_run": "as §1"}, "[23]": {"target": "Fuc(a1-2)Gal(b1-4)GlcNAc(b1-3)Gal(b1-4)GlcNAc", "how_it_was_run": "as §1"}, "[24]": {"target": "Fuc(a1-2)Gal(b1-4)GlcNAc(b1-3)Gal(b1-4)GlcNAc(b1-2)Man(a1-3)[Fuc(a1-2)Gal(b1-4)GlcNAc(b1-3)Gal(b1-4)GlcNAc(b1-2)Man(a1-6)]Man(b1-4)GlcNAc(b1-4)GlcNAc", "how_it_was_run": "as §1"}}, "note": "This is one part of the list."}
{"binder": "B1", "values": [{"measurement": "glycan array binding signal (z-score)", "setting": "Fuc(a1-2)Gal", "value": -0.154}, {"measurement": "glycan array binding signal (z-score)", "setting": "Fuc(a1-2)Gal(b1-3)GalNAc", "value": -0.466}, {"measurement": "glycan array binding signal (z-score)", "setting": "[1]", "value": -0.372}, {"measurement": "glycan array binding signal (z-score)", "setting": "[2]", "value": -0.105}, {"measurement": "glycan array binding signal (z-score)", "setting": "[3]", "value": 1.86}, {"measurement": "glycan array binding signal (z-score)", "setting": "[4]", "value": -0.33}, {"measurement": "glycan array binding signal (z-score)", "setting": "[5]", "value": -0.071}, {"measurement": "glycan array binding signal (z-score)", "setting": "Fuc(a1-2)Gal(b1-3)GlcNAc", "value": -0.165}, {"measurement": "glycan array binding signal (z-score)", "setting": "[6]", "value": -0.324}, {"measurement": "glycan array binding signal (z-score)", "setting": "[7]", "value": -0.43}, {"measurement": "glycan array binding signal (z-score)", "setting": "[8]", "value": -0.448}, {"measurement": "glycan array binding signal (z-score)", "setting": "[9]", "value": -0.413}, {"measurement": "glycan array binding signal (z-score)", "setting": "[10]", "value": -0.273}, {"measurement": "glycan array binding signal (z-score)", "setting": "[11]", "value": -0.528}, {"measurement": "glycan array binding signal (z-score)", "setting": "[12]", "value": -0.293}, {"measurement": "glycan array binding signal (z-score)", "setting": "[13]", "value": -0.469}, {"measurement": "glycan array binding signal (z-score)", "setting": "[14]", "value": -0.449}, {"measurement": "glycan array binding signal (z-score)", "setting": "[15]", "value": 0.227}, {"measurement": "glycan array binding signal (z-score)", "setting": "[16]", "value": -0.321}, {"measurement": "glycan array binding signal (z-score)", "setting": "[17]", "value": -0.522}, {"measurement": "glycan array binding signal (z-score)", "setting": "[18]", "value": -0.342}, {"measurement": "glycan array binding signal (z-score)", "setting": "Fuc(a1-2)Gal(b1-4)Glc", "value": -0.162}, {"measurement": "glycan array binding signal (z-score)", "setting": "Fuc(a1-2)Gal(b1-4)Glc6S", "value": -0.338}, {"measurement": "glycan array binding signal (z-score)", "setting": "Fuc(a1-2)Gal(b1-4)GlcNAc", "value": -0.178}, {"measurement": "glycan array binding signal (z-score)", "setting": "[19]", "value": 0.002}, {"measurement": "glycan array binding signal (z-score)", "setting": "[20]", "value": 0.617}, {"measurement": "glycan array binding signal (z-score)", "setting": "[21]", "value": -0.111}, {"measurement": "glycan array binding signal (z-score)", "setting": "[22]", "value": -0.246}, {"measurement": "glycan array binding signal (z-score)", "setting": "[23]", "value": -0.412}, {"measurement": "glycan array binding signal (z-score)", "setting": "[24]", "value": -0.262}]}
